The record followed here is article PMC3216941.

The chains behind the UniProt entries cited, without tags or fusion partners. Where a name states a change or a piece, a line headed by the entry shows the natural chain unless it says otherwise. A line that says so, or that is headed by a name, gives the form on record, which may keep a tag or linker. Residues count along the entry.
hnRNPK-K2-GFP (aa150–337) (P61978, residues 150-337): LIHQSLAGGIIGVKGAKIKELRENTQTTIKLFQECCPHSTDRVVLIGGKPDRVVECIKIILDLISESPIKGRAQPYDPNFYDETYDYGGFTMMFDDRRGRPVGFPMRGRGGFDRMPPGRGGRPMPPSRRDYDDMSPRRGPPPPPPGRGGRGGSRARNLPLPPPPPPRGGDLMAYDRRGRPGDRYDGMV
hnRNPK prey clone aa248–464 (P61978-2, form named): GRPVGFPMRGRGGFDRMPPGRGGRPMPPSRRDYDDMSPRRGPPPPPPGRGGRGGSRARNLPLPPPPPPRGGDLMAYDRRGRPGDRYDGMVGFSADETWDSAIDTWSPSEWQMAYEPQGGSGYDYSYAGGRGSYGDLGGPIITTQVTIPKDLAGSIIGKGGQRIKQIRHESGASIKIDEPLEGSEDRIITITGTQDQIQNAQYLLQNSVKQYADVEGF
hnRNPK-K3-GFP (aa337–464) (P61978-2, form named): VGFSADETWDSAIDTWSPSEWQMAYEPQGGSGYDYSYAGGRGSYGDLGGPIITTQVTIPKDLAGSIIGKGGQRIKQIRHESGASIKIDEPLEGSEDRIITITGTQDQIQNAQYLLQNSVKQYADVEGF
hnRNPK prey clone aa267–464 (P61978-2, form named): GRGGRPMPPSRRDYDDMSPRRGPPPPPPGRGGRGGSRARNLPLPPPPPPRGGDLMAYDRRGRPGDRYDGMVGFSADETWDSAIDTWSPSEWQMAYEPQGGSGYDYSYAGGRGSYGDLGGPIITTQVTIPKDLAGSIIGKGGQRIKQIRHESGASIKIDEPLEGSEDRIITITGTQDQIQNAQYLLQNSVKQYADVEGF

Assay [1] addresses Abi-1 (full coding sequence) fused to the GAL4 DNA binding domain (UniProt Q9QZM5). Briefly: two-hybrid; Abi-1 full coding sequence on the GAL4 DNA binding domain (pAS2-1) as bait, human fetal brain cDNA library in pACT2 as prey; yeast strains Y187 and AH109; growth without histidine and X-gal filter-lift; clones retested after re-transformation.
Assay [2] addresses T1, AbiSH3-GFP (Abi-1 SH3 domain, aa417–476) (UniProt Q9QZM5).
T1 sequence: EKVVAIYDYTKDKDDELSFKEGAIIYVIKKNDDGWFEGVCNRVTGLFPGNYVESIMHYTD
Nature of the assay: co-IP; lysate of cotransfected Cos7 cells; GFP fusion precipitated with anti-GFP microbeads; immunoblot with anti-Myc (Fig. 1D-II) or anti-hnRNPK (Fig. 1D-III).

The target in assay [3] is T2, AbiΔSH3-GFP (Abi-1 without the C-terminal SH3-domain, aa1–416) (UniProt Q9QZM5).
T2 sequence: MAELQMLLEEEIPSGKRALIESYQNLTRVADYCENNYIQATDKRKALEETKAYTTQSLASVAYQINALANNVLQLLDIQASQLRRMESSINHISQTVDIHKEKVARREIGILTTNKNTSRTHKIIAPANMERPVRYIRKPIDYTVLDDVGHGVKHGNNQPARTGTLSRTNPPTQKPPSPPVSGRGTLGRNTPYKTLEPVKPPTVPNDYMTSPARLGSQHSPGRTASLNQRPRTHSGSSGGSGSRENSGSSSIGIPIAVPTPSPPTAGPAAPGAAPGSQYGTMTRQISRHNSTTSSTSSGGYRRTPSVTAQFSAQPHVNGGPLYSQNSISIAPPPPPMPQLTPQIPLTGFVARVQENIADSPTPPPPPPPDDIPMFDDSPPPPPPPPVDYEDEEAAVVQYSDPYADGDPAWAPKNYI
The assay is described as above.

The next assay concerns the target hnRNPK-K1-GFP (aa1–149) (UniProt P61978). Described as above.
Assay [4] addresses hnRNPK-K2-GFP (aa150–337) (UniProt P61978). Described as above.
The target in assay [5] is hnRNPK-K3-GFP (aa337–464) (UniProt P61978). The description is as above.
In assay [6] the target is heterogeneous nuclear ribonucleoprotein K (hnRNPK), endogenous in brain (rat (endogenous in brain)) (UniProt P61980). Briefly: co-IP; endogenous proteins; hnRNPK antibody on magnetic microbeads, brain lysate and synaptosomal fraction; immunoblot with anti-Abi-1; control with unspecific IgG.
Assay [7] deals with Abi-1-Myc (aa1–476; full-size Abi-1) (UniProt Q9QZM5). Nature of the assay: co-IP; lysate of cotransfected Cos7 cells; Abi-1-Myc immobilised on anti-Myc microbeads on a column; immunoblot with anti-GFP. In general terms: In western blotting, separated proteins are transferred to a membrane and probed.

Results are given in words; binding and its absence hold for the method and conditions named. For part of these data: In cells and extracts the contact can be indirect. Some results given as binding are weak or reduced against the parent protein; the word gives no strength. For part of these data: Tags and fused reporters may be left off the sequences shown.

With “hnRNPK prey clone aa248–464 (from UniProt P61978-2 248-464) (domain or fragment)”, in assay [1], the binding result was “binds”.

In the case of “hnRNPK-full-Myc (aa1–464; full-size hnRNPK fused to Myc) (from UniProt P61978-2 1-464)”, the binding result in assay [2] was “binds”; in assay [3] it was “no binding”.

As to “Abi-1-Myc (aa1–476; full-size Abi-1) (from UniProt Q9QZM5 1-476)”, the binding result with hnRNPK-K1-GFP (aa1–149) was “no binding”; in assay [4], “binds”; in assay [5] it was “no binding”.

With “Abelson-interacting protein 1 (Abi-1), endogenous in brain (from UniProt Q9QZM5 1-476)”, the binding entry in assay [6] is “binds”.

Take “hnRNPK-full-GFP (aa1–464; full-size hnRNPK fused to GFP) (from UniProt P61978-2 1-464)”: the binding result in assay [7] is “binds”.

Consider “hnRNPK prey clone aa267–464 (from UniProt P61978-2 267-464) (domain or fragment)”, for which, in assay [1], the binding result was “binds”.
